“Also recorded” adds a separate entry of the source.
Experiments:
total myostatin in serum [1] = assay: Total serum myostatin, liraglutide study; format: in vivo, mouse; settings: for Myostatin (total serum myostatin): terminal bleed serum
Protocol: Levels of the antibodies' exposure to myostatin in the serum was measured by assaying for total myostatin in the serum (Lakshman (2009) Cellular Endocrinol 302:26). […] The samples were then neutralized and assayed for mature growth factor.

total myostatin in serum [2] = assay: Circulating total myostatin in serum (acidification ELISA), dexamethasone model; format: in vivo, mouse; settings: for Circulating total myostatin levels: terminal serum
Source text: Briefly, serum samples were acidified at low pH (e.g., pH ˜2.5) to dissociate the bound antibody from the immune complex and to convert all myostatin in the sample to the active form of growth factor (i.e., mature myostatin). Samples were then neutralized and assayed for the presence of mature myostatin on ELISA plates coated with anti-mature myostatin antibodies as capture reagents.

[3] = Terminal serum antibody exposure, dexamethasone model; format: in vivo, mouse; settings: day 1 and day 7, dexamethasone-treated mice
Protocol: Antibody exposure and circulating total myostatin levels were measured in the serum collected from the terminal bleeds after treatment with Ab2, Ab130 and Ab109. The results are shown in Table 15 and Table 16 respectively.

[4] = test system: dexamethasone-induced muscle atrophy in C57BL6 male mice; assay: Dexamethasone-induced muscle atrophy mouse model; format: in vivo
Source text: To evaluate in vivo efficacy of the novel myostatin-selective inhibitors disclosed herein, the ability of the antibodies to preserve lean muscle mass was examined in a dexamethasone-induced atrophy mouse model. An excess of glucocorticoids directly stimulates myostatin production via interactions with a glucocorticoid response element in the myostatin promoter, thus inducing loss of muscle mass. As shown herein, antibodies of the disclosure prevented glucocorticoid-induced muscle atrophy.
C57BL6 male mice (n=8) at 13-14 weeks of age were given normal drinking water or water containing dexamethasone at a concentration of 2.5 mg/kg (17.5 grams dexamethasone per liter of drinking water) to induce atrophy. […] Body weight was measured daily. Body composition was measured by qNMR to determine lean mass pre-dosing, at day 7, and at day 14. After 14 days of dexamethasone exposure, the animals were terminated, and body weight and gastrocnemius weight were measured. Terminal blood for each animal was also collected.
C57BL6 male mice (n=8) at 13-14 weeks of age were given normal drinking water or water containing dexamethasone at a concentration of 2.5 mg/kg to induce atrophy. Mice were dosed at day 1 and day 7 with vehicle (PBS), IgG control (“hIgG”) or different doses of the test antibodies, as shown in Table 13. Muscle mass at days −1, 6 and 13 was measured using qNMR. At the end of the study (day 14), serum from each animal was collected and changes in body weight, body composition (qNMR), left and right gastrocnemius weight, and left and right quadriceps weight were measured. Statistical analysis was performed by ANOVA (Dunnett's multiple comparison test).
In a third experiment, antibody doses ranging from 0.3 mg/kg to 10 mg/kg were compared for their effectiveness in attenuating dexamethasone-induced atrophy. C57BL6 male mice (n=8) at 13-14 weeks of age were given normal drinking water or water containing dexamethasone at a concentration of 2.5 mg/kg to induce atrophy. Mice were dosed at day 1 and day 7 with vehicle (PBS), human IgG control (“hIgG”) or different doses of the test antibodies, as shown in Table 14 below. qNMR was used to measure muscle mass at days-1, 6 and 13. At day 14 the study ended, serum was collected and changes in body composition (qNMR), left and right gastrocnemius weight, and left and right quadriceps weight were determined. Circulating myostatin was measured in the serum of a terminal bleed taken at day 14. Statistical analysis was performed by ANOVA (Dunnett's multiple comparison test).
In a fourth experiment, antibodies Ab109 and Ab133 were compared to control human IgG and Ab2 in the same protocol as described above.

[5] = test system: diet-induced obese mice on liraglutide; assay: High fat diet (DIO) mice treated with liraglutide and antibody; format: in vivo, mouse
Protocol: Caloric restriction causes loss of both fat and lean mass; inhibiting myostatin maintains lean mass during weight loss. […] Changes in body composition were assessed by qNMR readout for fat mass and lean mass; gastrocnemius weight; and inguinal and perigonadal fat pad weight.
Ten-week-old male mice were fed formula D12492 ad lib, a high-calorie diet comprised of 60% fat, and remained on this diet throughout the study. The antibodies were dosed weekly and liraglutide was dosed daily. Body composition and body weight were measured by qNMR prior to dosing, at 2 weeks, and at the end of the dosing period body weight. Gastrocnemius muscles were removed, and their weights were measured after the animals were terminated.

[6] = in combination with liraglutide

B1: Ab130: anti-pro/latent myostatin antibody; CDRs in Tables 2d-f, variable domains Table 3, chains Table 4 (antibody)
heavy: EVQLVESGGGLVQPGGSLRLSCAASGFTFTSYGMSWVRQAPGKGLELVASITGSGGETYYPDSVKGRFTISRDNAKNSLYLQMNSLRAEDTAVYYCARDLLVRFLEWSHYYGMDVWGQGTTVTVSSASTKGPSVFPLAPCSRSTSESTAALGCLVKDYFPEPVTVSWNSGALTSGVHTFPAVLQSSGLYSLSSVVTVPSSSLGTKTYTCNVDHKPSNTKVDKRV[human IgG4 Fc with S228P (EU numbers) left out]
light: DIVMTQSPLSLPVTPGEPASISCRSSQSLLHSSGHNFLHWYLQKPGQSPQLLIYETSNRAPGIPDRFSGSGSGTDFTLKISRVEAEDVGVYYCQQATQFPRPFGGGTKVEIKRTVAAPSVFIFPPSDEQLKSGTASVVCLLNNFYPREAKVQWKVDNALQSGNSQESVTEQDSKDSTYSLSSTLTLSKADYEKHKVYACEVTHQGLSSPVTKSFNRGEC
Myostatin (total serum myostatin) (total myostatin in serum [1]; antibody 1 mg/kg/week + liraglutide 0.06 mg/kg q.d.): 52.9 ng/mL
Myostatin (total serum myostatin) (total myostatin in serum [1]; antibody 3 mg/kg/week + liraglutide 0.06 mg/kg q.d.): 41.5 ng/mL
Myostatin (total serum myostatin) (total myostatin in serum [1]; antibody 10 mg/kg/week + liraglutide 0.06 mg/kg q.d.): 41.0 ng/mL
Myostatin (total serum myostatin) (total myostatin in serum [1]; antibody 20 mg/kg/week + liraglutide 0.06 mg/kg q.d.): 42.4 ng/mL
total serum myostatin (total myostatin in serum [1]; liraglutide-treated mice, Table 21, FIG. 15B): reduced total serum myostatin concentrations compared to Ab2; also recorded: increase in serum myostatin levels
accumulation of total or latent myostatin in serum samples from dosed subjects (total myostatin in serum [2]; as compared to apitegromab): reduced accumulation of circulating latent myostatin
total circulating myostatin in serum (total myostatin in serum [2]; dexamethasone-treated mice, FIG. 8, FIG. 15A): lower levels of total circulating myostatin as compared to Ab2 treatment; also recorded: increase in serum myostatin levels
Circulating total myostatin levels (total myostatin in serum [2]; dose 0.3 mg/kg, dexamethasone-treated mice): 473.8 ng/mL
Circulating total myostatin levels (total myostatin in serum [2]; dose 1 mg/kg, dexamethasone-treated mice): 567.3 ng/mL
Circulating total myostatin levels (total myostatin in serum [2]; dose 3 mg/kg, dexamethasone-treated mice): 585.6 ng/mL
Circulating total myostatin levels (total myostatin in serum [2]; dose 10 mg/kg, dexamethasone-treated mice): 325.2 ng/mL
Terminal antibody exposure ([3]; dose 0.3 mg/kg): 1.2 µg/mL
Terminal antibody exposure ([3]; dose 1 mg/kg): 4.7 µg/mL
Terminal antibody exposure ([3]; dose 3 mg/kg): 93.1 µg/mL
Terminal antibody exposure ([3]; dose 10 mg/kg): 488.4 µg/mL
body weight loss in dexamethasone treated mice ([4]; doses 0.3-10 mg/kg on day 1 and day 7, dose as in the words, FIG. 7A, FIG. 10A): efficacious in preserving body weight
lean mass by qNMR in dexamethasone treated mice ([4]; doses 0.3-10 mg/kg, dose as in the words, FIG. 7B, FIG. 10B): At a dose of 10 mg/kg, Ab130 showed greater efficacy in preserving lean mass than Ab2
gastrocnemius muscle weight in dexamethasone treated mice ([4]; doses 0.3-10 mg/kg, dose as in the words, FIG. 7C, FIG. 10C): more efficacy at 3 mg/kg than both doses of Ab2
quadriceps muscle weight in dexamethasone treated mice ([4]; doses 0.3-10 mg/kg, dose as in the words, FIG. 7D, FIG. 10D): more efficacy at 3 mg/kg than both doses of Ab2
lean mass ([5]; antibody with liraglutide, FIG. 11E): lean mass increased; also recorded: greater increases in lean mass compared to Ab2
gastrocnemius muscle mass ([5]; antibody with liraglutide, FIG. 11F): more effective at increasing gastrocnemius mass than Ab2
subcutaneous inguinal fat pad fat mass [5, 6]: reduced the fat mass in the subcutaneous inguinal fat pad
visceral perigonadal fat pad fat mass [5, 6]: reduced the fat mass in the visceral perigonadal fat pad to a greater extent
body weight of mice on high fat diet ([5]; liraglutide daily, antibody weekly for four weeks, FIGS. 11A-D): lost more body weight compared to those treated with Ab2; also recorded: lost slightly less weight than those treated with liraglutide and an IgG control
fat mass ([5]; with liraglutide, FIG. 11G): decreased fat mass to a greater extent than Ab2
